We go through 56 compounds from publication PMC4336329 (PLoS ONE, 2015).

SMILES strings stand for the structures. In all, about 310,000 compounds went through this assay and about 14,000 (4.5%) showed an effect of 50% or more. Effects have a minus sign here. The list shows a part of the results.
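Also: peak tail current of the secondary pulse compared with the same well before compound.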

Sequence of human ether-à-go-go-related gene (hERG) potassium channel (Q12809 whole entry, looked up): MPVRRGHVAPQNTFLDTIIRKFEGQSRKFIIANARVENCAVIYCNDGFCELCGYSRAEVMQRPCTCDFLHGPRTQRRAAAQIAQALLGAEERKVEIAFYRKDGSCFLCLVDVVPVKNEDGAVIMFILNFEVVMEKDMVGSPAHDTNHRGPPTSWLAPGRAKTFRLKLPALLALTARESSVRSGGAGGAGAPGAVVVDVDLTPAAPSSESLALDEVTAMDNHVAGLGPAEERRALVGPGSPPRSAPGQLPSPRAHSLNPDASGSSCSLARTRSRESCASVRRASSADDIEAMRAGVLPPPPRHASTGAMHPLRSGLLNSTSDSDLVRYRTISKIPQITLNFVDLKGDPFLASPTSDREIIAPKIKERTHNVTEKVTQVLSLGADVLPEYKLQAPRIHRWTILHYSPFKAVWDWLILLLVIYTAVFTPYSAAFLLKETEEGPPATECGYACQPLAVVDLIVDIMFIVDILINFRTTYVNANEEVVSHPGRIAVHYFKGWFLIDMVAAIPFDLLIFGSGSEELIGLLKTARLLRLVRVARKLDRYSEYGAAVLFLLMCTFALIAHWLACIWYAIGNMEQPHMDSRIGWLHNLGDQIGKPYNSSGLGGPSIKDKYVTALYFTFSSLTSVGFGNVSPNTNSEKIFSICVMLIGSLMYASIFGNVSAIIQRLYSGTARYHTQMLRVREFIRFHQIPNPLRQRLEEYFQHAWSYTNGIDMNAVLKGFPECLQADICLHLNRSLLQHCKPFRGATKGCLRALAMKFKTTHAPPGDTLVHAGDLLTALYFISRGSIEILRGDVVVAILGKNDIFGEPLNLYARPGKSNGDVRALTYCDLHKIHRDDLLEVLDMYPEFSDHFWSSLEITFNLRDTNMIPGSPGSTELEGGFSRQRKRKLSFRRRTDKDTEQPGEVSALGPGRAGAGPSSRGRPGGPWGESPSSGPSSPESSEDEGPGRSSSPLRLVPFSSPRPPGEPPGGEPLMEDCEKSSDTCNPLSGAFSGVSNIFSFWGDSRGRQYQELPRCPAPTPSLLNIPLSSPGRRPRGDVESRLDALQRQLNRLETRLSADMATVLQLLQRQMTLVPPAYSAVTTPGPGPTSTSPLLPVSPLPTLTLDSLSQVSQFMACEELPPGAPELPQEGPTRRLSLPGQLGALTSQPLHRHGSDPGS

This experiment concerns the target human ether-à-go-go-related gene (hERG) potassium channel (human, UniProt Q12809). Nature of the experiment: primary screen, population patch clamp on CHO cells stably expressing hERG.
As for `NC(=O)c1ccc(-c2c(-c3ccccc3)sc3ccccc23)cc1`, the “hERG current change (%, negative = inhibition) at 10uM” value is on record as 12.4%.

As to `O=C(O)CC/C(=N\Nc1ccc([N+](=O)[O-])cc1S(=O)(=O)N1CCOCC1)c1cccs1`, the “hERG current change (%, negative = inhibition) at 10uM” value is reported as -9.21%.

`COc1ccc(NS(=O)(=O)c2ccc(SC)cc2)cc1`: the “hERG current change (%, negative = inhibition) at 10uM” value is reported as -13.7%.

On to `CC1CCCN(S(=O)(=O)c2ccc3[nH]c4c(c3c2)CCCC4)C1` (centres unmarked), for which the “hERG current change (%, negative = inhibition) at 10uM” value was -24.9%.

For `CCc1nnc(NC(=O)CSc2nnc(-c3ccccc3NC(=O)c3ccccc3)o2)s1`, the “hERG current change (%, negative = inhibition) at 10uM” value was 5.78%.

Regarding `COc1ccc(CC(=O)NCC2(c3ccc(OC)c(OC)c3)CCCC2)cc1`, the “hERG current change (%, negative = inhibition) at 10uM” value was -20.8%.

As to `O=C(CN1C(=O)c2ccccc2C1=O)NCCOc1ccccc1`, the “hERG current change (%, negative = inhibition) at 10uM” value is reported as -2.09%.

In the case of `CCc1nc2ccccc2n1CCC(=O)O.Cl`, the “hERG current change (%, negative = inhibition) at 10uM” value is -5.88%.

For `O=C(CNC(=O)c1ccc(Br)o1)NCc1cccc(Cl)c1`, the “hERG current change (%, negative = inhibition) at 10uM” value is 1.86%.

As for `CC(=O)Nc1ncc(N=Nc2cccc(C(F)(F)F)c2)s1`, the “hERG current change (%, negative = inhibition) at 10uM” value was found to be 13.5%.

As for `O=C(NCCc1nnc2ccc(N3CCCCCC3)nn12)c1ccccc1`, the “hERG current change (%, negative = inhibition) at 10uM” value is -8.74%.

As to `COC(=O)c1ccccc1NC(=O)CCS(=O)(=O)c1ccc(Br)s1`, the “hERG current change (%, negative = inhibition) at 10uM” value was 2.51%.

For the compound `CCOCCn1ccc2c(OCC(=O)Nc3cc(OC)ccc3OC)cccc2c1=O`, the “hERG current change (%, negative = inhibition) at 10uM” value is listed as -0.0541%.

On to `COc1cccc(-c2nnc(SCC(=O)Nc3ccc(OC)c(OC)c3)n2N)c1`, for which the “hERG current change (%, negative = inhibition) at 10uM” value is reported as 14.3%.

For `O=C(C1CCCN(Cc2ccccc2Br)C1)N1CCCCC1.O=C(O)C(=O)O` (centres unmarked), the “hERG current change (%, negative = inhibition) at 10uM” value is given as -10.8%.

In the case of `CSc1ncccc1C(=O)NC1CCCc2c1cnn2-c1ccc(C)c(C)c1` (centres unmarked), the “hERG current change (%, negative = inhibition) at 10uM” value is reported as 12.5%.

As for `COC(=O)c1c(NC(=O)CN2CCC3(O)CCCCC3C2c2ccccc2OC)sc(C)c1C` (centres unmarked), the “hERG current change (%, negative = inhibition) at 10uM” value was found to be 4.06%.

`COc1cc(OC)c(OC)cc1CN1CCN(C(=O)CC(C)C)CC1`: the “hERG current change (%, negative = inhibition) at 10uM” value is listed as 10%.

For `CCOCCCNC(=O)c1ccc2c(c1)N=C(CC)c1cc(Br)ccc1S2`, the “hERG current change (%, negative = inhibition) at 10uM” value is 2.7%.

`C[C@@H]1CC[C@@]2(O[C@@H](CCO)C[C@H](O)[C@H]2O)O1`: the “hERG current change (%, negative = inhibition) at 10uM” value is -2%.

As to `Nc1nc(-c2ccccc2)cs1`, the “hERG current change (%, negative = inhibition) at 10uM” value was -3.08%.

For the compound `O=C(N/C(=C/c1cccs1)C(=O)N1CCOCC1)c1ccco1`, the “hERG current change (%, negative = inhibition) at 10uM” value was -1.03%.

For the compound `COCCCNC(=O)CNC(=O)c1nn(-c2ccc(OC)cc2OC)c(=O)c2ccccc12`, the “hERG current change (%, negative = inhibition) at 10uM” value is listed as 13.9%.

Take `COc1cc2cc(CCOC(=O)c3ccc(F)cc3)oc(=O)c2cc1OC`: the “hERG current change (%, negative = inhibition) at 10uM” value came out at 4.44%.

`NC(N)=NS(=O)(=O)c1ccc(NC(=S)NC(=O)c2ccccc2)cc1`: the “hERG current change (%, negative = inhibition) at 10uM” value came out at 3.96%.

As to `O=C(O)CCc1ccc(-c2ccc(F)cc2)n1CCC(=O)O`, the “hERG current change (%, negative = inhibition) at 10uM” value is 14.9%.

Take `CCCOc1ccc(C=Nc2ccc(OC)c(S(=O)(=O)N3CCOCC3)c2)c(O)c1`: the “hERG current change (%, negative = inhibition) at 10uM” value was 12%.

Turning to `O=C(OCc1ccc([N+](=O)[O-])cc1)c1ccccn1`, the “hERG current change (%, negative = inhibition) at 10uM” value is -28.2%.

In the case of `COc1ccccc1N1C(=O)C2C(C(=O)c3ccccc3)=NN(c3ccccc3OC)C2C1=O` (centres unmarked), the “hERG current change (%, negative = inhibition) at 10uM” value is 7.15%.

Turning to `CC1Oc2ccccc2C=C1/C=N/NC(=O)c1ccncc1` (centres unmarked), the “hERG current change (%, negative = inhibition) at 10uM” value is -13.4%.

Regarding `O=S(=O)(c1ccccc1)N1CCCC1c1nc2ccccc2s1` (centres unmarked), the “hERG current change (%, negative = inhibition) at 10uM” value is -19.2%.

In the case of `COc1cccc(NC(=O)Cc2nnc(SCCOc3ccccc3)n2C)c1`, the “hERG current change (%, negative = inhibition) at 10uM” value is listed as -10.1%.

Regarding `Cc1c(C(Nc2ccccn2)c2ccccc2)c(=O)n(-c2ccccc2)n1C` (centres unmarked), the “hERG current change (%, negative = inhibition) at 10uM” value is recorded as -4.59%.

In the case of `Cc1ccc(S(=O)(=O)N2CCN(C(=O)c3ccc(-n4cncn4)c([N+](=O)[O-])c3)CC2)cc1`, the “hERG current change (%, negative = inhibition) at 10uM” value is listed as -52.5%.

As for `COC(=O)CCSCC(=O)Nc1ccc(S(=O)(=O)N2CCOCC2)cc1OC`, the “hERG current change (%, negative = inhibition) at 10uM” value is recorded as 5.68%.

On to `O=C(c1ccc(NS(=O)(=O)c2cccc([N+](=O)[O-])c2)cc1)N1CCCCCC1`, for which the “hERG current change (%, negative = inhibition) at 10uM” value was -23.1%.

As to `CC(=O)/C(C#N)=C1\NC(=O)C(Cc2ccccc2)S1` (centres unmarked), the “hERG current change (%, negative = inhibition) at 10uM” value was found to be 19.7%.

With `CSc1nc(-c2ccccc2)nc2c1COC(C)(C)C2`, the “hERG current change (%, negative = inhibition) at 10uM” value is 5.03%.

Turning to `CC1(C)C/C(=N\O)c2cc3c(nc2C1)CCCC3`, the “hERG current change (%, negative = inhibition) at 10uM” value is listed as 9.17%.

Regarding `CCCCN(CCCC)CC(O)CN1C(=O)NC(C)(C)C1=O` (centres unmarked), the “hERG current change (%, negative = inhibition) at 10uM” value is listed as -1.82%.

For `CCOC(=O)[C@@H]1[C@H]2COc3cc(OC)ccc3[C@@H]2N2C(=O)N(c3ccc(C)cc3)C(=O)[C@@]12C`, the “hERG current change (%, negative = inhibition) at 10uM” value was -6.53%.

On to `CCOC(=O)c1ccc(-c2n[nH]c(=O)c3ccccc23)cc1`, for which the “hERG current change (%, negative = inhibition) at 10uM” value is -3.55%.

Regarding `COc1ccccc1CNC(=O)c1sccc1C`, the “hERG current change (%, negative = inhibition) at 10uM” value is given as -14.9%.

Take `O=C1/C(=C/c2ccc(C(=O)O)cc2)CCC/C1=C\c1ccc(C(=O)O)cc1`: the “hERG current change (%, negative = inhibition) at 10uM” value is -24.1%.

On to `CCN(CC)c1ccc2c(C)cc(=O)oc2c1`, for which the “hERG current change (%, negative = inhibition) at 10uM” value amounted to 3.55%.

`O=C(COC(=O)c1ccccc1Br)NCCN1C(=O)CSC1=O`: the “hERG current change (%, negative = inhibition) at 10uM” value came out at 0.442%.

Regarding `O=C(Nc1ccc(Cl)cc1)N1CCc2ccccc2C1`, the “hERG current change (%, negative = inhibition) at 10uM” value came out at 4.51%.

For the compound `Cl.Fc1ccccc1CCNCc1cccc(Cl)c1Cl`, the “hERG current change (%, negative = inhibition) at 10uM” value was 3.56%.

With `CCOC(=O)c1c(C)nc2ccccc2c1-c1ccccc1.Cl`, the “hERG current change (%, negative = inhibition) at 10uM” value is recorded as -30.8%.

Take `COc1ccc2oc(=O)c(-c3nc4ccccc4o3)cc2c1`: the “hERG current change (%, negative = inhibition) at 10uM” value is given as -4.29%.

Take `COc1ccc(CCNC(=O)CC(c2ccccc2)c2cc(C)ccc2O)cc1OC` (centres unmarked): the “hERG current change (%, negative = inhibition) at 10uM” value came out at 4.09%.

Take `Cc1nc(C(=O)Nc2cc(Cl)ccc2Cl)nn1-c1cc(OC(C)C)c(Cl)cc1Cl`: the “hERG current change (%, negative = inhibition) at 10uM” value was -4.89%.

Consider `COc1ccccc1OCC(=O)NCCS(=O)(=O)N1CCN(c2ccc(F)cc2)CC1`, for which the “hERG current change (%, negative = inhibition) at 10uM” value is -60.8%.

`CN1Cc2sc(N)c(C#N)c2CC1(C)C.Cl`: the “hERG current change (%, negative = inhibition) at 10uM” value is -13.6%.

On to `O=C(NCc1ccco1)/C(=C\c1cccs1)NC(=O)c1ccco1`, for which the “hERG current change (%, negative = inhibition) at 10uM” value is reported as -0.334%.

Turning to `S=C(NCCc1ccccn1)Nc1ccccc1Cl`, the “hERG current change (%, negative = inhibition) at 10uM” value is 19.3%.
